Experimental findings from article PMC12136788 are described below.

The list shows a part of the results.

The chains are these.
T1: UNK ZnF1-6 (called full-length) (human, UniProt Q9C0B0 30-357)
T1 sequence: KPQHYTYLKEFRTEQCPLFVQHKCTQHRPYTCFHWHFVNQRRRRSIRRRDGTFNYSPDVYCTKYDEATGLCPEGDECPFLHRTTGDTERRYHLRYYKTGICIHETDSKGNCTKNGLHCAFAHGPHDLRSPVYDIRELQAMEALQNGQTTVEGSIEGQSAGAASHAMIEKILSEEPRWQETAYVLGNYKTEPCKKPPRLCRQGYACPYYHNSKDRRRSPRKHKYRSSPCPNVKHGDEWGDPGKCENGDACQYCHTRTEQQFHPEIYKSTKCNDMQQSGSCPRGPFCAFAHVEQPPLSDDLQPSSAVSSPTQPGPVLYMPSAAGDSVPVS

B1: chr17:15571490:15574098:-|three_prime_utr|ENSG00000251537|control|control|control (ssRNA)
RNA: GGGAGUUCUACAGUCCGACGAUCGGAAAAUGAAACAAAUGACAAUGUCAUUGCAUUGAUUUUGUUCUCAUUAAAUGGUAUUUUAGCUAUAAACAUUUUCCCCUUUGAUUUGCAAAAAAAAAUUAUAGAAAAUGUCUAUGUUGCCAACAGAGGAUUGAGCAUCA
B2: chr10:32033860:32033975:-|CDS|ENSG00000170759|unk|total|mutant (ssRNA)
RNA: GGGAGUUCUACAGUCCGACGAUCCACAGUGGAUAAAGAUAUUACUCUUACCAAUGAUAAACCAGCAACCGCAAUUGGAGUUACCGGAAAUUUUACUGAUGCUGAAAGAAGAAAGUGUGAAGAAGAAAUUGCUAAAUUAUACAACAACAGAGGAUUGAGCAUCA
B3: chr19:37127587:37127689:+|CDS|ENSG00000197050|unk|total|mutant (ssRNA)
RNA: GGGAGUUCUACAGUCCGACGAUCUAUGCAUGUAAGGAAUGUGGGAAGGCCUUUACUCAAAGCUCACAACUUAUUUUACAUCACCGAAUUCAUACUGGUGAAAAACCAUAUAAAUGUGAAGAAUGUGGGAAAGCCUUUAUUCGUCAACAGAGGAUUGAGCAUCA
B4: chr9:76611375:76614569:-|three_prime_utr|ENSG00000106772|control|control|control (ssRNA)
RNA: GGGAGUUCUACAGUCCGACGAUCAUGUUACCUUUUUCCACUUUGCACUACCUGGUGCCAUUCUAAAUUUCUAAGGGGAAAAAUAGAAAGUUUGUUUACUCUUAAGAUAUUUUAUGAAAUUGUGUGUACUUUCCUAUUUUGCCACAACAGAGGAUUGAGCAUCA
B5: chr2:227556236:227556337:+|3pUTR|ENSG00000173744|msi1|total|mutant (ssRNA)
RNA: GGGAGUUCUACAGUCCGACGAUCUGUUGAAUGCCUUUUUGCAAUGAUGACUGAGUUGUUAUCACCGUAUUUUAAAACCUGUACCGUGUUUCCGACUUGUUAAAACAUUGCUGUCCCGUGUACAUCCCGCUAAAAGUGUGGUUUCAACAGAGGAUUGAGCAUCA
B6: chr1:202726062:202726163:-|3pUTR|ENSG00000117139|unk|FALSE|unique (ssRNA)
RNA: GGGAGUUCUACAGUCCGACGAUCGAAAUGCACCUGAUUUGCCAUUAUACCCACCAUCAAAAGCAACAUGGCCCUUUGGGUAUUAGUGCAAGAUUAGCCUAAGAAUAGAGUAGAUCUCUACCUGGAAGAGGGUGAAACAUGGCUCAACAGAGGAUUGAGCAUCA
B7: chr5:171862525:171862626:-|3pUTR|ENSG00000072803|msi1|FALSE|unique (ssRNA)
RNA: GGGAGUUCUACAGUCCGACGAUCGACAGUGCAUGGAAAGGACGUUGGCAUCCAAUUGGCACUCCUUCUCCCUUAUUCAAUAUUAGGUUUGAUUUGCCCUUCGCCAUUGUUUCCAAAGAUCAAGGAAUGUCAAUAACAUUUUAACAACAGAGGAUUGAGCAUCA
B8: ENSG00000029725:stop:overlap|stop_codon|ENSG00000029725|stop_codon|NA|stop_codon (ssRNA)
RNA: GGGAGUUCUACAGUCCGACGAUCAAAAUGAAAUGAAAAAGGAUCCCAUCCAGGAUACCAUAUUGCAUUUAGUUGUGUCUCCUUAGAUGCCUCUUGGCUGUGACAGUUUCUCAGAUUUUUCUUGUUUUUAAUGACCUUUCUGUCCAACAGAGGAUUGAGCAUCA
B9: ENSG00000139921:stop:overlap|stop_codon|ENSG00000139921|stop_codon|NA|stop_codon (ssRNA)
RNA: GGGAGUUCUACAGUCCGACGAUCUUCCACAGAAUGCCAUAAGACAACGCUCUCUGGGUCCAUCAUUGGCCACAGAUAAAUCCUAGUUAAAUUUUAUAGUUAUCUUAAUAUUAUGAUUUUGAUAAAAACAGAAGAUUGAUCAUUCAACAGAGGAUUGAGCAUCA
B10: chr1:6592219:6592320:-|3pUTR|ENSG00000162413|unk|total|mutant (ssRNA)
RNA: GGGAGUUCUACAGUCCGACGAUCCCCAAAGCCGCCUUGGCUUGAGUUUUUGUCCUUGCCUCCUUUUCCGAGAAGAGGGCAUUCCGACUGCAUUUUCCUGGUUAAAGAAGGUUAAAGCAAAUGUUUAUUGCCUUUUCCCGUGAACAACAGAGGAUUGAGCAUCA
B11: ENSG00000107863:be:win_901|CDS|ENSG00000107863|bound_else_gene|NA|bound_elsewhere_windowed (ssRNA)
RNA: GGGAGUUCUACAGUCCGACGAUCGUGAGGUAUGGCGUGAGUGAGCAGACCUCUUUAAAAACAGUGUCAAGAACCACAUCACCACCAUUAUCAAUUCCCACCACUCAUCUAAUUCAUCAGCCUGCAGGCUCCAGAUCACUGGAACAACAGAGGAUUGAGCAUCA
B12: ENSG00000070961:be:win_3501|CDS|ENSG00000070961|bound_else_gene|NA|bound_elsewhere_windowed (ssRNA)
RNA: GGGAGUUCUACAGUCCGACGAUCCGAAGAUGAUGCUCCUACAAAACGUAACUCCAGUCCUCCACCCUCUCCCAACAAAAAUAACAAUGCUGUUGACAGUGGAAUUCACCUUACAAUAGAAAUGAACAAGUCUGCUACCUCUUCCAACAGAGGAUUGAGCAUCA
B13: chr8:87872786:87873971:-|CDS|ENSG00000176566|control|control|control (ssRNA)
RNA: GGGAGUUCUACAGUCCGACGAUCUUGUCUCAGCAGGUCCUGUUGACCAACGUGGUGACGGGACACCAGCAGUCAUUUGGGACUAGCAGUGAUGUCUUGGCCCAGCAGUUUGCAAUCAUGACUCCUUUGCUGUUUAAUGGCUGUCAACAGAGGAUUGAGCAUCA
B14: chr15:66548596:66548706:+|3pUTR|ENSG00000174442|unk|total|mutant (ssRNA)
RNA: GGGAGUUCUACAGUCCGACGAUCCCGCAAGGGCUCUGAAAUGACAAAGAGAACGAGCACCACAAAUGAGAACAGGAUCAUUUCCGUAAAUACAGCUUUAUCCCAAAAGCUUUAACUGUAUUGGGAAAACUUAAAAAACCGCAUCAACAGAGGAUUGAGCAUCA
B15: ENSG00000125968:stop:overlap|stop_codon|ENSG00000125968|stop_codon|NA|stop_codon (ssRNA)
RNA: GGGAGUUCUACAGUCCGACGAUCGCACCCUCAACGGCGAGAUCAGCGCCCUGACGGCCGAGGUGAGAUCCAGAUCCGACCACUAGAUCAUCCUUAUACCGACGGGGAAACGGAGGCCAGAGAGGGCGUGGGCGCUUGCACCACCAACAGAGGAUUGAGCAUCA
B16: chr4:140153917:140154018:-|5pUTR|ENSG00000196782|msi1|FALSE|bound_elsewhere (ssRNA)
RNA: GGGAGUUCUACAGUCCGACGAUCUUUGCAGUCGCCUCGGACUGUCCAUGUGUUUACUUCCCCCAGCCCGAGGAUUCGAUAUCUAGGUUCCUGUGAAAUGCAACUGAGCAGCCAAAGUACUUUGAGAACACGGGGCGGCAUAAACAACAGAGGAUUGAGCAUCA
B17: chr15:78897113:78897311:+|3pUTR|ENSG00000185787|unk|FALSE|unique (ssRNA)
RNA: GGGAGUUCUACAGUCCGACGAUCUAACAAUUGAUGUUUGUUUUCUGUUUGAUUUUAAACAGAGAAAAAAUAAAAGGGGGUAAUAGCUCCUUUUUUCUUCUUUCUUUUUUUUUUUCAUUUCAAAAUUGCUGCCAGUGUUUUCAACAACAGAGGAUUGAGCAUCA
B18: ENSG00000136451:be:win_3751|3pUTR|ENSG00000136451|bound_else_gene|NA|bound_elsewhere_windowed (ssRNA)
RNA: GGGAGUUCUACAGUCCGACGAUCCUCCACAGUGGUCCAAGGAGCAGUCCUCAGUGGGGGCAGGUGUGGGCCCUACCCCUAAGCUAGAAUGUGGUUGUCAGAACCCUGAAAGUAUUAGUUCUAAAAAAAAAAAGAUAUAUACUACAACAGAGGAUUGAGCAUCA
B19: chr8:96333981:96334082:+|3pUTR|ENSG00000156471|msi1|total|mutant (ssRNA)
RNA: GGGAGUUCUACAGUCCGACGAUCUUAAGUUCAGGCCACUUUUCUGUCUUUUAUUUGGUUACUGUUGUUAUUUGUUUUUAAGUCCGGAUGCUUUUUAACAGCCUUCCGAAGCCGCUGCUGAAAUUGAUACUGGGGGAAGGGUUCCAACAGAGGAUUGAGCAUCA
B20: chr2:73730642:73730743:-|CDS|ENSG00000144034|unk|total|mutant (ssRNA)
RNA: GGGAGUUCUACAGUCCGACGAUCUUCAGACGCCGGAAACAAUGGUUAAUGAUCUUGUGUUUUUUUUUUCAUUUUUUUUCUCUCCGAUUUCAGAGGCUUUGAAAAAAUUUGGUAUCUCAGCAAAUGACACUUCAAUUCUAAUUGCAACAGAGGAUUGAGCAUCA
B21: chr1:93353930:93354034:+|CDS|ENSG00000117505|unk|total|mutant (ssRNA)
RNA: GGGAGUUCUACAGUCCGACGAUCUUUGGGAUUUGGCUCUUACAUCAGUGAAGUAAAAGAAGUCUUGCAAGAGUGUAAAACAGCCGCAUUAAAAAGAAGAAAGGCCAGUUCUCGUUUGGAAAACCUUGGCAUUCCUGAAGAAGACAACAGAGGAUUGAGCAUCA
B22: chr5:103210461:103210562:+|3pUTR|ENSG00000145725|unk|FALSE|unique (ssRNA)
RNA: GGGAGUUCUACAGUCCGACGAUCGAAUAAGGAGCUGGGAGAAAGGAGACCUGGGUAUUAAUCUCAGCUCUACCACUACAUGGUAGAGCUAUGUAGUGGUAGACUAUCUGGGAGACUCUAGAAUCUUUACCAUUCCCUCUACUACAACAGAGGAUUGAGCAUCA

The test has as its target T1, UNK ZnF1-6 (called full-length). Put plainly: nsRBNS (natural sequence RNA bind-n-seq); RBNS binding buffer (assumed for nsRBNS): 25 mM Tris pH 7.5, 150 mM KCl, 3 mM MgCl2, 0.01% Triton X-100, 500 ug/ml BSA, 20 U/ml SUPERase-In, 4 C; UNK is unkempt and MSI1 is Musashi-1; names of the RNAs are library labels; protein concentration not given here; high values mean tight binding.
With B1, the binding signal came out at 0.581 enrichment R.
To B2 belongs 0.53 enrichment R.
The value for B3 was 0.323 enrichment R; that for B4 was 0.818 enrichment R; that for B5 was 0.259 enrichment R.
To B6 belongs 0.635 enrichment R.
On to B7, for which the binding signal amounted to 0.962 enrichment R.
The value for B8 was 0.907 enrichment R.
The value for B9 was 0.941 enrichment R; that for B10 was 0.414 enrichment R.
The value for B11 was 0.806 enrichment R; that for B12 was 1.65 enrichment R; that for B13 was 0.434 enrichment R.
Turning to B14, the binding signal worked out at 0.299 enrichment R.
The value for B15 was 0.625 enrichment R; that for B16 was 0.686 enrichment R.
To B17 belongs 0.958 enrichment R.
To B18 belongs 1.48 enrichment R; to B19, 0.869 enrichment R.
In the case of B20, the binding signal was 0.388 enrichment R.
The value for B21 was 0.606 enrichment R; that for B22 was 0.726 enrichment R.
